# Test results as given in the supplement of paper PMC4166925.
# ± gives the standard deviation of the averaged measurements. Over roughly 33,000 sequences, “E-score (dimensionless, -0.5 to 0.5)” has its median near -0.049; the highest 2% begin near 0.37. The list shows a part of the results.
# System: T1, PmTbr T-box DNA-binding domain (GST fusion)
# T1 sequence: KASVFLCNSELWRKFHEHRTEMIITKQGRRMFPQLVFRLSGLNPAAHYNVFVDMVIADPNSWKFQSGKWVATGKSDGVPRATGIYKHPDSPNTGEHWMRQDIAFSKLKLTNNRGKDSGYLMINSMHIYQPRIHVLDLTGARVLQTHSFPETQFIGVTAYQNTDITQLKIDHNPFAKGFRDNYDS
# Assay: PBM E-score of 8-mer (E-score (dimensionless, -0.5 to 0.5)); Tbr is Tbrain of the sea star Patiria miniata (Pm) or the sea urchin Strongylocentrotus purpuratus (Sp); higher = stronger binding preference; most listed sequences are background and not binding sites
# Conditions: the construct has about 5 more residues each side
# Description: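 Universal protein-binding microarray (Agilent AMADID 016060, 60-bp probes with a 35-bp variable region) incubated with 200 nM GST-fused Patiria miniata Tbr T-box DNA-binding domain (residues 272-466) in PBS pH 7.5. Scored for every ungapped 8-mer (given with its reverse complement) by the Universal PBM Analysis Suite as E-score (modified Wilcoxon-Mann-Whitney enrichment, range -0.5 to 0.5; >0.45 counts as bound) and Z-score of median probe intensity. Two replicate arrays (datasets 1 and 2).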
row,Sequence,PBM E-score of 8-mer
1,CAGCAAGC,-0.103 ± 0.0015
2,ACTCACTC,-0.016 ± 0.059
3,CACCACTC,0.183 ± 0.016
4,GAGCCCCA,-0.0187 ± 0.036
5,AATTGAAC,-0.0777 ± 0.024
6,AGCGGCAA,0.0991 ± 0.016
7,ACTATAGA,-0.289 ± 0.034
8,ACCCCTGG,-0.111 ± 0.013
9,CCATACAG,-0.205 ± 0.0027
10,AGCGCGCA,0.104 ± 0.053
11,AATCCCTC,-0.173 ± 0.1
12,CGAGCTTC,-0.0216 ± 0.00046
13,AAGTTGAA,-0.328 ± 0.07
14,CATTTGCA,0.0315 ± 0.03
15,CCATACTC,0.0602 ± 0.026
16,AGAACCTA,-0.135 ± 0.064
17,ATGTCTCG,-0.153 ± 0.055
18,ACCATCTA,-0.112 ± 0.021
19,GCCTATGA,-0.192 ± 0.025
20,AGTTCAAG,-0.271 ± 0.039
21,CAAGATCG,-0.00864 ± 0.1
22,CTGTGGAA,-0.0725 ± 0.14
23,CTGTAAGC,-0.0165 ± 0.097
24,GGTGCATA,0.0156 ± 0.023
25,CACTGGGC,-0.267 ± 0.098

row,Sequence,PBM E-score of 8-mer
1,GCTAATCC,-0.0551 ± 0.047
2,ATGTAATA,-0.08 ± 0.0095
3,TTGAGAAA,0.0227 ± 0.14
4,GCGGACCA,-0.117 ± 0.039
5,CTTGAACA,-0.172 ± 0.0064
6,CAAGAGCC,-0.048 ± 0.0027
7,AAGCCGGA,-0.273 ± 0.086
8,AACGTCGC,0.0909 ± 0.015
9,AATCCGGT,-0.0786 ± 0.098
10,CAGGGGAC,-0.126 ± 0.043
11,CGATGGCG,0.168 ± 0.063
12,TATCTGCA,-0.0137 ± 0.015
13,ACCTCCCG,0.0185 ± 0.096
14,AAATTCTT,-0.155 ± 0.029
15,TACAAGGA,-0.184 ± 0.061
16,GGCTCCTA,-0.209 ± 0.029
17,CTTCACCC,0.0387 ± 0.019
18,GTTACGAA,0.0491 ± 0.02
19,ACGTGCAA,0.1917 ± 0.00088
20,GAAACCAC,-0.112 ± 0.0064
21,CAGCCCGC,-0.145 ± 0.03
22,CAAACACG,0.221 ± 0.04
23,GACTAGAC,-0.0973 ± 0.043
24,TGCGCTAA,0.247 ± 0.036
25,GCCGTTCC,-0.174 ± 0.035

row,Sequence,PBM E-score of 8-mer
1,ATTGGCAG,0.0761 ± 0.012
2,TATCTTGA,-0.215 ± 0.044
3,CAGCAAAG,-0.123 ± 0.027
4,ACGCTGCC,0.103 ± 0.022
5,AGTCTCTC,-0.152 ± 0.011
6,GTCTCGAA,-0.1315 ± 0.00068
7,AAACAATA,-0.0242 ± 0.037
8,CCTAAGCC,-0.113 ± 0.0019
9,CAAACCAG,-0.122 ± 0.032
10,CCCGAACC,-0.119 ± 0.062
11,GGTAACAC,0.43 ± 0.0044
12,CCGGTGCG,0.101 ± 0.07
13,CAGTGGTC,-0.208 ± 0.12
14,GGTCCTGA,-0.164 ± 0.0018
15,CCTTATAC,-0.09 ± 0.078
16,CAGTCACG,0.143 ± 0.0015
17,CCTGGTAG,-0.213 ± 0.03
18,CACACGCA,0.201 ± 0.052
19,CACACCGG,0.135 ± 0.057
20,CTGCTGGC,0.000885 ± 0.013
21,AAATATTT,-0.0394 ± 0.0084
22,ACCGTCCG,-0.0852 ± 0.062
23,CCACTCTA,-0.0635 ± 0.066
24,AATTTTCA,0.0506 ± 0.061
25,GACACTCA,0.28 ± 0.0035

row,Sequence,PBM E-score of 8-mer
1,ACAGCTTG,0.152 ± 0.05
2,ACTCCACT,-0.128 ± 0.036
3,CTGCCAGA,-0.131 ± 0.0021
4,TAATGCGA,0.0983 ± 0.054
5,CTTTCACC,0.14 ± 0.034
6,ATATACCG,-0.0946 ± 0.014
7,CGCAGCTA,0.0474 ± 0.067
8,AGTACACC,0.0441 ± 0.02
9,CTTACTAA,-0.116 ± 0.036
10,GATGAGAC,-0.0112 ± 0.048
11,CGGGTCAG,-0.124 ± 0.11
12,CGCGAAAG,0.3697 ± 0.0008
13,CTGCCTTC,-0.03 ± 0.015
14,GCTCACCC,-0.043 ± 0.073
15,AAGCCCAT,-0.223 ± 0.034
16,AAGGCCAA,-0.2375 ± 0.00042
17,AACATCAT,-0.215 ± 0.028
18,AGACCTAT,-0.2143 ± 0.00038
19,CCTATTGA,-0.205 ± 0.019
20,CATCCAGC,0.0928 ± 0.028
21,CCATGGCC,-0.263 ± 0.011
22,AGGCGTCC,0.0614 ± 0.039
23,GGCGGAAC,-0.129 ± 0.0067
24,GAGCTAGA,-0.00238 ± 0.087
25,AACAAAAG,0.0585 ± 0.05

row,Sequence,PBM E-score of 8-mer
1,GACTCTTA,-0.0591 ± 0.013
2,CCCTGAAC,-0.0373 ± 0.033
3,CTCTGAGA,-0.176 ± 0.035
4,ACAATCAT,0.0609 ± 0.022
5,AAGCGAAG,0.0228 ± 0.014
6,ATGTCTTG,0.0183 ± 0.028
7,AGTGAATG,0.102 ± 0.0097
8,TACGATCA,-0.165 ± 0.029
9,GCGCAAGA,0.023 ± 0.075
10,ATAGCGCA,0.231 ± 0.055
11,CGTGTATA,-0.117 ± 0.033
12,GACATAGA,-0.0946 ± 0.012
13,TACCGCCA,0.14 ± 0.035
14,CTCAAAAG,-0.123 ± 0.014
15,CGTATGCC,-0.241 ± 0.0056
16,GCGCCAGA,0.161 ± 0.022
17,TCCATTAA,-0.219 ± 0.021
18,GTATCCAC,0.0223 ± 0.03
19,TTAGCAAA,0.173 ± 0.064
20,AAAGTGCG,0.315 ± 0.013
21,ATTCATAG,-0.258 ± 0.052
22,CAATTGGC,0.0686 ± 0.013
23,ACCGAACA,0.124 ± 0.11
24,CCGGAGCA,-0.174 ± 0.073
25,GCTTGTAC,-0.129 ± 0.0078

row,Sequence,PBM E-score of 8-mer
1,AGCTCTGC,-0.103 ± 0.062
2,TGTACAAA,-0.171 ± 0.0051
3,AGAGTTAG,-0.0219 ± 0.0028
4,CTGTATAA,-0.15 ± 0.071
5,AGCTTGCG,0.0999 ± 0.037
6,AATGTAGA,-0.232 ± 0.087
7,AAATTAAT,-0.0745 ± 0.12
8,TGACGCCA,0.257 ± 0.0061
9,CCTACACC,0.252 ± 0.042
10,GCCTTAGA,-0.238 ± 0.016
11,CATATGGA,-0.1183 ± 0.00071
12,GAGCCGAC,0.00453 ± 0.026
13,CGCCTATA,0.0393 ± 0.012
14,CTGAGAAG,-0.0799 ± 0.011
15,ATTGCCCA,-0.0817 ± 0.017
16,ACTAACCC,0.0626 ± 0.018
17,GACGGAGA,-0.143 ± 0.043
18,AGTCATCG,-0.153 ± 0.0094
19,TCGTGTAA,0.0789 ± 0.0091
20,AGATTCCT,-0.103 ± 0.11
21,GCCTATAC,-0.288 ± 0.052
22,AAACGATT,-0.101 ± 0.0011
23,CAGCGAGG,0.0797 ± 0.025
24,GCATCTGA,-0.0824 ± 0.1
25,CAAGTAAG,-0.191 ± 0.039

row,Sequence,PBM E-score of 8-mer
1,ACGAACCA,-0.122 ± 0.025
2,CCATTTGC,-0.0789 ± 0.04
3,CGGCAGAA,-0.0852 ± 0.039
4,GGTCACGA,0.183 ± 0.026
5,TGGAACCA,-0.262 ± 0.0091
6,CAAGGTGA,0.406 ± 0.0091
7,ATAACCGA,-0.147 ± 0.098
8,GCAGTGCC,-0.117 ± 0.051
9,ATATGTCA,0.0208 ± 0.066
10,ATGCGTAC,-0.272 ± 0.07
11,TCACAAGA,0.224 ± 0.03
12,CGCCGAAC,0.041 ± 0.012
13,GTTTGCGA,0.0776 ± 0.039
14,CGCAGCCA,0.00214 ± 0.11
15,ATAGCCAT,-0.146 ± 0.031
16,AGTTGGGA,-0.167 ± 0.025
17,GAGTGAGA,0.334 ± 0.017
18,ATAGCTCG,-0.0789 ± 0.017
19,CTACCAGA,-0.1381 ± 0.0011
20,ACGACACA,0.115 ± 0.034
21,ATTCGACC,-0.152 ± 0.058
22,CGCGTTCC,-0.0382 ± 0.061
